Results reported in PubChem BioAssay AID1457 (National Center for Advancing Translational Sciences (NCATS), 2008).
The campaign covered roughly 210,000 compounds. About 730 (0.35%) were called active. The shares of active, inactive and inconclusive entries below differ from those in the screen. The call rests on the fitted dose curve; in most records, active means well fitted inhibition curve with a large enough effect; inconclusive means small, poorly fitted or top-dose-only effect; inactive means no such curve, though single readings can be large or run the other way. Potencies beside an inconclusive call are fits to weak or partial responses and may not hold up.

assay: qHTS Assay for Identifying the Cell-Membrane Permeable IMPase Inhibitors: Potentiation with Lithium; conditions: CHO-M1 cells, IP1 TR-FRET (IP-One), carbachol + lithium; series mostly up to 59.4 µM; activity, negative = IMPase inhibition: at the top concentration; further: nearly all actives have a fitted effect of over 50% in size;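 on activity, negative = IMPase inhibition: plate controls were basal vehicle for no effect and high inhibitor control for full effect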
Method in brief: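 Concentration–response in CHO-M1 cells, lithium-potentiated; 30 min at 37C. IP1 detected by competitive TR-FRET after 10 min lysis at RT. Hill-fitted AC50.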
Potency means the concentration at half of the fitted maximal effect.

For Cn1nc(-c2ccc(Cl)cc2)c2cc(C(=O)N3CCN(c4ccccn4)CC3)sc21, which Potency is on record?
Its Potency is inconclusive: 28.2 µM [inhibitor, single point].

For CN(C)CCCN(C(=O)c1sc2ccccc2c1Cl)c1nc2ccc(F)cc2s1, which Potency is on record?
The Potency was inconclusive: 11.2 µM [inhibitor, partial curve].

With O[C@@H](c1cc(C(F)(F)F)nc2c(Cl)cc(Cl)cc12)C1CCCCN1 (stereo partly specified) as the molecule, how does the “activity, negative = IMPase inhibition” value read?
The value was inactive: -1.86%.

Which “activity, negative = IMPase inhibition” value does the source give for CC(C1CCCC(=O)C1)[N+](=O)[O-] (stereo unspecified) here?
Its value is inactive: 1.64%.

Which “activity, negative = IMPase inhibition” value does the source give for CC1(C)COC(c2cc([N+](=O)[O-])ccc2Cl)=N1 here?
Its value is inactive: 0.555% [at 38.3 µM].

For Cc1cc2cc3c(cc2nc1SCc1ccccn1)OCCO3, which Potency is on record?
The Potency was inconclusive: 28.2 µM [inhibitor, single point].

Which Potency does the source give for COCCCNC(=O)c1ccc2c(=O)n(Cc3ccc4c(c3)OCO4)c(=S)[nH]c2c1 here?
Its Potency is inconclusive: 12.6 µM [inhibitor, single point].

With C=C(CC1([C@@H](NP(=O)(c2ccccc2)c2ccccc2)[C@H]2C[C@@H]2CCN(C(=O)OCC)S(=O)(=O)c2ccc(C)cc2)CC1)c1ccccc1 as the molecule, how does the “activity, negative = IMPase inhibition” value read?
The value was inactive: 0.231%.

For COc1cc(NC(=O)c2ccc(Cl)cc2Cl)ccc1-c1cc2ccccc2oc1=O, which Potency is on record?
Its Potency is inconclusive: 11.2 µM [inhibitor, partial curve].

Which Potency does the source give for Cc1cc(Br)ccc1SCC(=O)OCC(=O)NC1CC1 here?
The Potency was inconclusive: 3.16 µM [inhibitor, partial curve].

For CCCc1[nH]nc2c1C(c1cccc(OC)c1)C(C#N)=C(N)O2 (stereo unspecified), which “activity, negative = IMPase inhibition” value is on record?
Its value is inactive: 4.74% [at 38.3 µM].

Which “activity, negative = IMPase inhibition” value does the source give for Cc1cc(NC(=O)CSc2nc3ccsc3c(=O)n2Cc2ccccn2)n[nH]1 here?
The value was inactive: -6.97% [at 38.3 µM].

Which “activity, negative = IMPase inhibition” value does the source give for Cc1ccc(OCc2nnc(SCC(=O)Nc3cccc4ccccc34)n2-c2ccccc2)cc1 here?
Its value is inactive: 25.7%.

Which Potency does the source give for O=C(NCCCN1CCOCC1)c1ccc(CNS(=O)(=O)c2ccc(F)cc2)cc1 here?
The Potency was inconclusive: 31.6 µM [inhibitor, single point].

For Cc1ccc(-n2c(-c3ccccc3)c[n+]3c2CCC3)cc1, which “activity, negative = IMPase inhibition” value is on record?
Its value is inactive: 19.1%.

With CN1C(=O)C(CC(=O)NC2CCCCC2)N(C)C1=O (stereo unspecified) as the molecule, how does the Potency read?
Its Potency is inconclusive: 7.08 µM [inhibitor, partial curve].

For CCc1cc2cc(C(=O)Nc3ccc(F)cc3)sc2s1, which Potency is on record?
Its Potency is inconclusive: 28.2 µM [inhibitor, single point].

For Cc1cc2nc(-c3ccc(SCC(=O)Nc4ccc(S(=O)(=O)N5CCCC5)cc4)nc3)[nH]c2cc1C, which Potency is on record?
The Potency was inconclusive: 22.4 µM [inhibitor, single point].

For Cc1cc(C)cc(NC(=S)/N=C(\N)Nc2nc(C)c3ccccc3n2)c1, which “activity, negative = IMPase inhibition” value is on record?
The value was inactive: 4.51%.

With O=C(Nc1ccc(S(=O)(=O)Nc2ccccc2)cc1)C1COc2ccccc2O1 (stereo unspecified) as the molecule, how does the “activity, negative = IMPase inhibition” value read?
The value was inactive: -6.06%.

Which “activity, negative = IMPase inhibition” value does the source give for Cc1ccc(C2CC2C(=O)NNC(=S)Nc2cccc(Cl)c2)cc1 (stereo unspecified) here?
Its value is inactive: 7.12%.

With OC[C@@H]1O[C@@H](O)[C@H](N=Cc2ccc3c(c2)OCO3)[C@@H](O)[C@@H]1O as the molecule, how does the “activity, negative = IMPase inhibition” value read?
The value was inactive: -5.11%.

With CC(CCC(=O)O)C1CCC2C3C(O)C[C@@H]4CC(O)CC[C@@]4(C)C3CC(O)[C@]12C (stereo partly specified) as the molecule, how does the “activity, negative = IMPase inhibition” value read?
The value was inactive: -2.68%.

Which “activity, negative = IMPase inhibition” value does the source give for c1ccc(-c2cn3c(n2)-c2ccccc2C3)cc1 here?
Its value is inactive: -5.29%.

With COc1ccc2c(COC(=O)CC3Sc4ccccc4NC3=O)cc(=O)oc2c1 (stereo unspecified) as the molecule, how does the Potency read?
The Potency was inconclusive: 28.2 µM [inhibitor, single point].

For COc1cc2c(cc1OC)-c1cc(OCCN3CCOCC3)nc(=O)n1CC2, which Potency is on record?
The Potency was inconclusive: 10 µM [inhibitor, partial curve, poor fit].

For CCOC(=O)c1c(C)[nH]c(C(=O)COC(=O)c2ccc(F)c(S(=O)(=O)N3CCOCC3)c2)c1C, which Potency is on record?
Its Potency is inconclusive: 28.2 µM [inhibitor, single point].

For Cc1ccc2nc(SCc3ccccc3)c(C=O)c(=O)n2c1, which Potency is on record?
The Potency was inconclusive: 28.2 µM [inhibitor, single point].

For Cc1ccc(C)c(N(CC(=O)N/N=C/c2ccc(-c3ccc([N+](=O)[O-])cc3)o2)S(=O)(=O)c2ccccc2)c1, which Potency is on record?
The Potency was inconclusive: 14.1 µM [inhibitor, partial curve, poor fit].

For O=C(N=C1c2ccccc2CN1c1cccc(Cl)c1)c1cccnc1, which “activity, negative = IMPase inhibition” value is on record?
Its value is inactive: 13.1%.

For COC(=O)c1sc(NC(=O)/C=C/c2ccc(C)cc2)nc1C, which Potency is on record?
The Potency was inconclusive: 14.1 µM [inhibitor, single point].

With O=C(NC(Cc1c[nH]c2ccccc12)C(=O)N1CCOCC1)c1cccs1 (stereo unspecified) as the molecule, how does the Potency read?
Its Potency is inconclusive: 5.01 µM [inhibitor, single point].

Which “activity, negative = IMPase inhibition” value does the source give for Cc1cc(C)c2cc(C#N)c(N3CCCC3)nc2c1 here?
Its value is inactive: 6.08% [at 38.3 µM].

For COc1cccc(NC(=O)CSc2nc3c(c(-c4ccco4)c2C#N)CCCC3)c1, which Potency is on record?
The Potency was active: 11.2 µM.

With CCOC(=O)CNc1c(-c2ccc(Cl)cc2)nc2cnccn12 as the molecule, how does the Potency read?
The Potency was inconclusive: 15.8 µM [inhibitor, partial curve].

For CCOc1cc2[nH]c(=S)n(CCc3ccc(OC)c(OC)c3)c(=O)c2cc1OCC, which Potency is on record?
Its Potency is inconclusive: 11.2 µM [inhibitor, single point].

With COc1ccc(-c2[nH]ncc2CN2CCC(OCc3cccnc3)CC2)c(F)c1 as the molecule, how does the “activity, negative = IMPase inhibition” value read?
Its value is inactive: 7.68%.

For Cc1[nH]n(-c2ccc([N+](=O)[O-])cc2)c(=O)c1C=NCCN1CCN(C(=O)C(C)C)CC1, which “activity, negative = IMPase inhibition” value is on record?
Its value is inactive: -6.36%.

With COc1ccc(CC(=O)OCc2cc3cccc(C)c3[nH]c2=O)cc1 as the molecule, how does the Potency read?
The Potency was inconclusive: 22.4 µM [inhibitor, single point].

Which Potency does the source give for COc1ccc(OC)c(C(=O)CSc2nnc(Cc3cccs3)n2CCc2ccccc2)c1 here?
The Potency was inconclusive: 28.2 µM [inhibitor, single point].

With COCCN(CCOC)C(=O)c1cc2c(=O)n3ccccc3nc2s1 as the molecule, how does the Potency read?
Its Potency is inconclusive: 11.2 µM [inhibitor, partial curve].

With CC1(C)CC(=O)C(C2C3=C(CC(C)(C)CC3=O)Oc3ccccc32)=C(O)C1 (stereo unspecified) as the molecule, how does the “activity, negative = IMPase inhibition” value read?
Its value is inactive: 0.708% [at 38.3 µM].

Which Potency does the source give for CCc1cc2cc3c(cc2nc1SCC(=O)Nc1nccs1)OCO3 here?
Its Potency is active: 12.6 µM.

Which Potency does the source give for Cc1ccc(C(=O)C2=C(O)C(=O)N(c3ncccn3)C2c2cccc(Cl)c2)o1 (stereo unspecified) here?
Its Potency is inconclusive: 11.2 µM [inhibitor, partial curve].

Which Potency does the source give for O=C(COC(=O)c1cc(-c2cccc3ccccc23)nc2ccccc12)NC1CCS(=O)(=O)C1 (stereo unspecified) here?
Its Potency is inconclusive: 25.1 µM [inhibitor, single point].

For Cc1ccnc(N2CCC(C(=O)NCc3ccccc3F)CC2)n1, which Potency is on record?
Its Potency is inconclusive: 28.2 µM [inhibitor, single point].

Which Potency does the source give for CCOc1ccc(NC(=O)CN(C)c2ccc(S(=O)(=O)N3CCOCC3)cn2)cc1OCC here?
Its Potency is inconclusive: 25.1 µM [inhibitor, single point].

Which Potency does the source give for Cc1ccc2nc(NC(=O)c3ccc(-c4nc5ccccc5s4)s3)sc2c1 here?
The Potency was inconclusive: 5.01 µM [inhibitor, single point].

Which “activity, negative = IMPase inhibition” value does the source give for CC(=O)c1cccc(CN2CCCC(CCC(=O)NCc3ccc(C)o3)C2)c1 (stereo unspecified) here?
The value was inactive: 40.2%.

For COC(=O)c1ccc(C(NC(=O)OCc2ccccc2)/C(F)=C/[C@@H](C)C(=O)N(C)Cc2cccnc2)cc1 (stereo partly specified), which “activity, negative = IMPase inhibition” value is on record?
The value was inactive: 5.65%.

With O=C(Nc1ccc2c(c1)OCO2)C1CCN(c2ccc(S(=O)(=O)N3CCOCC3)cc2)CC1 as the molecule, how does the Potency read?
The Potency was inconclusive: 28.2 µM [inhibitor, single point].

For Cc1cc(NC(=O)CSc2nc(C(C)C)nc3sc4c(c23)CCCC4)no1, which Potency is on record?
The Potency was inconclusive: 28.2 µM [inhibitor, single point].

With C=CCOC(=O)CCCCCCCC as the molecule, how does the “activity, negative = IMPase inhibition” value read?
Its value is inactive: 14.8%.

With Cc1ccc(C(=O)OCc2nnc(-c3ccccc3)o2)o1 as the molecule, how does the “activity, negative = IMPase inhibition” value read?
The value was inactive: 25.7% [at 38.3 µM].

Which Potency does the source give for COC(=O)[C@H]1[C@H]2CC3c4[nH]c5ccccc5c4CCN3C[C@@H]2CC[C@@H]1O (stereo partly specified) here?
Its Potency is inconclusive: 2 µM [inhibitor, full curve, poor fit].

Which Potency does the source give for CCCCCn1c(=O)[nH]c2cc(C(=O)NCc3ccccn3)ccc2c1=O here?
The Potency was inconclusive: 2.51 µM [inhibitor, partial curve].

Which “activity, negative = IMPase inhibition” value does the source give for N#CC1=C(SCC(=O)Nc2cccc3cccnc23)NC(=O)C(C#N)C12CCCCC2 (stereo unspecified) here?
Its value is inactive: 10.6% [at 38.3 µM].

With COc1ccc(/C=C/C(=O)c2sc(-c3ccc(Cl)cc3)nc2C)cc1 as the molecule, how does the Potency read?
The Potency was inconclusive: 10 µM [inhibitor, partial curve].

With Cc1c(/C(O)=C2\C(=O)C(=O)N(CCN(C)C)C2c2cccnc2)cnn1-c1ccccc1 (stereo unspecified) as the molecule, how does the Potency read?
Its Potency is inconclusive: 11.2 µM [inhibitor, partial curve].

With COC(=O)Cn1c(=NC(=O)c2cc(OC)c(OC)c(OC)c2)sc2cc(OC)ccc21 as the molecule, how does the Potency read?
Its Potency is inconclusive: 28.2 µM [inhibitor, single point].

For CC(C)c1nnc(NC(=O)Cn2nc(-c3ccc4c(c3)OCCO4)ccc2=O)s1, which Potency is on record?
Its Potency is inconclusive: 28.2 µM [inhibitor, single point].

Which Potency does the source give for COc1ccc(-n2nnnc2SCC(=O)c2ccc3c(c2)OCCO3)cc1 here?
The Potency was inconclusive: 28.2 µM [inhibitor, single point].

With O=C(/C=C/c1ccco1)Nc1cc(Cl)ccc1C(=O)O as the molecule, how does the “activity, negative = IMPase inhibition” value read?
Its value is inactive: -7.54%.

With CCOC(=O)c1cc(C(=O)OCC)c2cc(Br)ccc2n1 as the molecule, how does the Potency read?
Its Potency is active: 10 µM.

With CC(=O)/C(C#N)=C1\NC(=O)C(Cc2ccccc2Cl)S1 (stereo unspecified) as the molecule, how does the Potency read?
Its Potency is inconclusive: 10 µM [inhibitor, partial curve].

Which Potency does the source give for O=C(Nc1ccc(Cl)cc1Cl)c1ccc(-c2ccccc2)cc1 here?
The Potency was inconclusive: 28.2 µM [inhibitor, single point].

Which “activity, negative = IMPase inhibition” value does the source give for Cc1cccn2c(=O)c(/C=C(\C#N)C(=O)NCc3ccco3)c(N3CCCC(C)C3)nc12 (stereo unspecified) here?
Its value is inactive: 22.7%.

Which Potency does the source give for Clc1ccc(Sc2cnc3ccccc3n2)cc1 here?
Its Potency is inconclusive: 12.6 µM [inhibitor, partial curve].

For CCCn1nnc(NC(=O)c2sc3ccccc3c2Cl)n1, which Potency is on record?
Its Potency is inconclusive: 10 µM [inhibitor, partial curve].

Which “activity, negative = IMPase inhibition” value does the source give for CC(C)CNS(=O)(=O)c1ccc(OCC(=O)Nc2ccc(F)cc2F)cc1 here?
Its value is inactive: 2.02%.

With O=C(O)/C=C(/C(=O)O)[C@]12CCN3CC4=CCO[C@@H]5CC(=O)N[C@@H]1C5[C@H]4C[C@H]32 (stereo partly specified) as the molecule, how does the Potency read?
The Potency was inconclusive: 5.01 µM [inhibitor, single point].
